# The campaign covered roughly 350,000 compounds. About 31,000 (8.9%) were called active. Inconclusive results, whose numbers are uncertain, are shown with a selection of clear calls. Calls come from the whole dose curve; as a rule, active = well fitted inhibition curve with a large enough effect; inconclusive = small, poorly fitted or top-dose-only effect; inactive = no such curve, though single readings can be large or run the other way. Where the call is inconclusive, the potency comes from a doubtful curve fit.
# Target: Histone-lysine N-methyltransferase EHMT2 (Homo sapiens) (UniProt Q96KQ7)
# Assay: qHTS Assay for Inhibitors of Histone Lysine Methyltransferase G9a; note: nearly all actives have a fitted effect of over 75% in size
# Conditions: G9a H3K9 monomethylation, AlphaScreen, 2 h; activity, negative = inhibition: at 59 µM (top of the series) unless noted
# Outline: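 Compounds were preincubated with 20 nM G9a for 15 min, after which biotinylated H3K9 peptide (500 nM) and SAM (20 uM) started a 2 h room-temperature reaction. Monomethylated product was quantified by antibody-based AlphaScreen chemiluminescence.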
# % is set by controls: 0 for no effect and ±100 for the full control effect; potency is the fitted concentration of half-maximal effect; tags give direction and shape of the fitted curve.
# Chain of UniProt Q96KQ7 (Q96KQ7 whole entry, looked up): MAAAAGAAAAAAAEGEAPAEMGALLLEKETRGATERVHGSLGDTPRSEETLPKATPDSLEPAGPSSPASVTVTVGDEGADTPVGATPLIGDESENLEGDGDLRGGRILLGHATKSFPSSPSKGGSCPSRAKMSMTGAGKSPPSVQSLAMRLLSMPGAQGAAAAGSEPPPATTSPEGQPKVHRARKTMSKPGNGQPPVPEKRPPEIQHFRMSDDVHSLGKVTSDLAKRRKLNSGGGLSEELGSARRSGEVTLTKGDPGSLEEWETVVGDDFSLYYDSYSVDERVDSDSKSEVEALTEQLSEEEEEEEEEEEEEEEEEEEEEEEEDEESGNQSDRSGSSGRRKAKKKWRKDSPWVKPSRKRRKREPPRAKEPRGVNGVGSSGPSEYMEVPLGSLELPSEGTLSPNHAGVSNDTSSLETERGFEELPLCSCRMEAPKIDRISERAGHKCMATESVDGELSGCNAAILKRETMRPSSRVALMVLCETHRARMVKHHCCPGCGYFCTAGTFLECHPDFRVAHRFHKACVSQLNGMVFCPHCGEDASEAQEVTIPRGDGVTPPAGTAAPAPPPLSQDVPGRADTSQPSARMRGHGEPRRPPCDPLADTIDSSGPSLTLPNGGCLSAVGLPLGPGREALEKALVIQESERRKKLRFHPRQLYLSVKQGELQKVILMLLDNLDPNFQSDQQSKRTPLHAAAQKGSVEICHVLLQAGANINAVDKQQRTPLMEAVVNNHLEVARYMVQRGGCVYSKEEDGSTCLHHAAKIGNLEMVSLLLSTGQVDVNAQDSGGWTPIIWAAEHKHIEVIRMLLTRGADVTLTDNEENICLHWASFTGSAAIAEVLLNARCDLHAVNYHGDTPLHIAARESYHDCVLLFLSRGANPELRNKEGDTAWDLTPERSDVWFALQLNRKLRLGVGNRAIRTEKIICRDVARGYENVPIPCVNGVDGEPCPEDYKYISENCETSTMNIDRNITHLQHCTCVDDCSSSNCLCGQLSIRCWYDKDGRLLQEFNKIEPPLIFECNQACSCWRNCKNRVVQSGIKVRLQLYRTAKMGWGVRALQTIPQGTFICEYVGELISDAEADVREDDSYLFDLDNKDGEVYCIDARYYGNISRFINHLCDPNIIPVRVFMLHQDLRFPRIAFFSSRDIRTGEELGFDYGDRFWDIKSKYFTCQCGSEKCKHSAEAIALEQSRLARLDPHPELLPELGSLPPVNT
SMILES,Potency,"activity, negative = inhibition"
O=C(O)CCN1CCc2ccccc2C1c1cccs1 (centres undefined),active: 50.1 µM,–
O=Nc1ccc(O)c2ncccc12,"inconclusive: 56.2 µM [inhibitor, partial curve, poor fit]",–
Nc1ccc(N=Nc2ccccc2)c2ccccc12,active: 10 µM,–
Nc1c2c(nc3ccc(Br)cc13)N(c1ccccc1)CC2,"inconclusive: 3.16 µM [inhibitor, single point]",–
CCn1c(SCc2nc3ccccc3c(=O)[nH]2)nnc1-c1ccncc1,"inconclusive: 89.1 µM [inhibitor, single point]",–
FC(F)(F)c1ccc(-c2n[nH]c(=S)o2)nc1,active: 39.8 µM,–
COc1ccc(-c2nc3cc([N+](=O)[O-])ccc3o2)cc1OC,"inconclusive: 1.41 µM [inhibitor, partial curve, poor fit]",–
COc1ccc(NC(=O)CCN2CCCCCC2)c(OC)c1,"inconclusive: 79.4 µM [inhibitor, single point]",–
CCCCc1ccc(NC(=O)CSc2nc(=O)n(CCN(CC)CC)c3c2CCC3)cc1,active: 50.1 µM,–
O=C(O)CC(Cc1ccc(Cl)cc1)C(=O)Nc1cc(Cl)ccc1Cl (centres undefined),–,inactive: -16.5% [at 0.501 µM]
COc1cccc(-c2nc(CS(=O)(=O)CC(=O)Nc3cc(OC)ccc3OC)c(C)o2)c1,"inconclusive: 79.4 µM [inhibitor, single point]",–
CC1CCc2nc3ccc(S(=O)(=O)N4CCC(C(=O)NCc5ccccc5Cl)CC4)cc3c(C(=O)O)c2C1 (centres undefined),"inconclusive: 35.5 µM [inhibitor, partial curve, poor fit]",–
CCN1CCN(Cc2c3ccccc3cc3ccccc23)CC1,"inconclusive: 89.1 µM [inhibitor, single point]",–
Cc1ccc2c(CC(=O)Nc3ccc(S(=O)(=O)N4CCC(C)CC4)cc3)coc2c1,"inconclusive: 17.8 µM [inhibitor, partial curve, poor fit]",–
COc1cc(OC)c(OC)cc1CNC1CCCCCC1,active: 7.94 µM,–
COc1ccc(N(CCC#N)C(=O)/C(C#N)=C/c2cccs2)cc1,"inconclusive: 50.1 µM [inhibitor, partial curve, poor fit]",–
O=C(c1ccc2nc(N3CCOCC3)sc2c1)N1CCN(c2ccc(Cl)cc2)CC1,"inconclusive: 89.1 µM [inhibitor, single point]",–
COc1cccc(C=Nc2cccnc2)c1O,"inconclusive: 70.8 µM [inhibitor, single point]",–
COc1cc(NC(=O)Nc2nnc(N3CCCCC3)s2)cc(OC)c1,"inconclusive: 39.8 µM [inhibitor, partial curve, poor fit]",–
COc1ccc(-c2cc([C@H]3[C@H]4C=CC[C@@H](C)[C@@H]4C(=O)N3Cc3ccccc3)ccc2F)cc1OC,"inconclusive: 35.5 µM [inhibitor, single point]",–
COc1ccc(OCCNC2CCCC2)cc1,active: 10 µM,–
CCN(CC)c1ccc(C2CC(=O)Nc3cc(OC)c(OC)cc32)cc1 (centres undefined),"inconclusive: 8.91 µM [inhibitor, single point]",–
COc1ccc(CC(=O)NCc2ccccc2)cc1,inactive,–

SMILES,Potency,"activity, negative = inhibition"
CCCn1c2ccccc2c2cnn(CC(=O)Nc3ccccc3OC)c(=O)c21,inactive,–
c1ccc2[nH]c(CN3CCN(c4ncnc5c4oc4ccccc45)CC3)nc2c1,"inconclusive: 50.1 µM [inhibitor, partial curve]",–
CCC(=NCCc1c(C)[nH]c2ccccc12)C1=C(O)CC(c2ccccc2)CC1=O (centres undefined),"inconclusive: 31.6 µM [inhibitor, single point]",–
FC(F)(F)c1cccc(-n2cccc2/C=N/n2cnnc2)c1,"inconclusive: 63.1 µM [inhibitor, partial curve, poor fit]",–
Cc1ccc(OCc2nnc(N)s2)cc1C,"inconclusive: 50.1 µM [inhibitor, partial curve, poor fit]",–
O=C(COC(=O)c1cccc(C(=O)OCC(=O)NC2CCCCC2)n1)NC1CCCCC1,active: 50.1 µM,–
COc1ccc(C)cc1N=Nc1ccc(O)c2ncccc12,active: 10 µM,–
O=C(NCCCN1CCOCC1)c1ccc(Sc2ccccc2Cl)c([N+](=O)[O-])c1,"inconclusive: 79.4 µM [inhibitor, single point]",–
NC(=O)CSc1nnc(NC(=O)c2cccc(S(=O)(=O)N3CCCCC3)c2)s1,"inconclusive: 39.8 µM [inhibitor, partial curve, poor fit]",–
O=C(O)c1ccc(N2C(=O)/C(=C/C=C/c3ccccc3)SC2=S)cc1,active: 44.7 µM,–
CCCCN(CCCNC(=O)c1cc(Nc2ccc(OC)cc2OC)nc2ccccc12)Cc1ccccc1,active: 10 µM,–
O=C(CCCc1cccs1)Nc1nccs1,inactive,–
Cc1ccc(C2OC(=O)c3ccccc32)cc1 (centres undefined),"inconclusive: 0.158 µM [inhibitor, full curve, poor fit]",–
COc1ccc(-c2cn3nc(N4CCCC(C(=O)Nc5ccccc5F)C4)sc3n2)cc1 (centres undefined),"inconclusive: 12.6 µM [inhibitor, partial curve]",–
CCOc1ccccc1N(C)C(=O)c1sc2nc3n(c(=O)c2c1C)CCCC3,"inconclusive: 5.62 µM [inhibitor, full curve, poor fit]",–
NC(=O)NNC1=Nc2cccc3cccc1c23,"inconclusive: 39.8 µM [inhibitor, partial curve, poor fit]",–
NC(=O)c1ccc(NC(=O)COC(=O)/C=C/c2ccc3c(c2)OCO3)cc1,inactive,–
CCOC(=O)c1c(NC(=O)CSc2cn(CCNC(=O)c3ccc(OC)cc3)c3ccccc23)sc2c1CCC2,"inconclusive: 2.82 µM [inhibitor, partial curve, poor fit]",–
COc1ccc(NC(=O)CSc2nc(-c3ccccc3)cc(-c3cc(OC)c(OC)c(OC)c3)c2C#N)c(OC)c1,"inconclusive: 10 µM [inhibitor, partial curve, poor fit]",–
O=C(O)CC(NS(=O)(=O)c1ccc(Br)cc1)c1ccco1 (centres undefined),active: 79.4 µM,–
Cc1ccc(C(=O)OCC(=O)N(C)c2c(N)n(Cc3ccccc3)c(=O)[nH]c2=O)s1,"inconclusive: 44.7 µM [inhibitor, partial curve, poor fit]",–
COc1ccc(C(=O)c2ccsc2N)cc1,"inconclusive: 50.1 µM [inhibitor, partial curve, poor fit]",–
NC(=O)Nc1ccc(C(=O)OCC(=O)N2CCc3ccccc3C2)cc1,"inconclusive: 8.91 µM [inhibitor, single point]",–

SMILES,Potency,"activity, negative = inhibition"
O=C(NCCn1c(C(F)(F)F)nc2cc(C(F)(F)F)ccc21)[C@H]1CCCN1c1nc(CN2CCCCC2)cs1,active: 70.8 µM,–
CSc1ccccc1NC(=O)c1ccoc1C,"inconclusive: 25.1 µM [inhibitor, single point]",–
Cc1nc2ccccc2c2oc(C(=O)N3CCc4ccccc4C3)cc12,"inconclusive: 89.1 µM [inhibitor, single point]",–
Cc1[nH]n(C(N)=S)c(=O)c1N=Nc1ccc2ccccc2c1,active: 31.6 µM,–
CCCCn1c(=O)c2c(O)cc(=O)oc2c2ccccc21,"inconclusive: 56.2 µM [inhibitor, partial curve, poor fit]",–
COc1ccc(-c2nc3oc4cc(OC)ccc4c(=O)c3c(=O)n2Cc2ccco2)cc1,active: 25.1 µM,–
CC(C)[C@H](Nc1nc(-c2ccccc2)nc2c1oc1ccccc12)C(=O)O,–,inactive: 40% [at 0.501 µM]
O=C(O)COc1ccccc1/C=N/NC(=O)c1cccc(S(=O)(=O)N2CCOCC2)c1,active: 14.1 µM,–
COc1ccc2nc(N/C(N)=N/C(=S)Nc3ccccc3)nc(C)c2c1,"inconclusive: 39.8 µM [inhibitor, partial curve, poor fit]",–
CCCCNS(=O)(=O)c1ccc2nc(SCC(=O)N3CC(C)OC(C)C3)[nH]c2c1 (centres undefined),"inconclusive: 79.4 µM [inhibitor, single point]",–
COc1ccc2c(c1)c1c3n2CCN(C)C3=NCC1,inactive,–
C/C(=N\Nc1cccc2cccnc12)c1ccc(N)cc1,"inconclusive: 5.62 µM [inhibitor, full curve, poor fit]",–
Cc1ccc(OCC(=O)NNc2c3ccccc3nc3ccccc23)cc1,"inconclusive: 39.8 µM [inhibitor, single point]",–
NS(=O)(=O)c1ccc(CCNC(=O)COC(=O)c2nc(Cl)ccc2Cl)cc1,–,inactive: 17.7% [at 2.33 µM]
CCOC(=O)/C=C/C(=O)Nc1nccs1,"inconclusive: 25.1 µM [inhibitor, single point]",–
CNC(=S)Nc1ccc2nc(C)c(C)nc2c1,"inconclusive: 79.4 µM [inhibitor, partial curve, poor fit]",–
O=C(NC1CCCCC1)C(=S)N1CCOCC1,–,inconclusive: -91.9% [inhibitor]
Cc1ccc(CCNC(=O)C2CCN(C(=O)c3sccc3-n3cccc3)CC2)cc1,"inconclusive: 89.1 µM [inhibitor, single point]",–
O=C(N/N=C/c1ccc(N2CCOCC2)o1)c1cccc([N+](=O)[O-])c1,active: 10 µM,–
CC(=O)N1CCN(C(=O)c2ccco2)CC1,inactive,–
O=C1NC2c3ccccc3C(=O)N2c2c1cnn2-c1ccccc1 (centres undefined),"inconclusive: 31.6 µM [inhibitor, single point]",–
C=CCOc1c(Cl)cc(CNCCCN2CCOCC2)cc1OC,"inconclusive: 1.12 µM [inhibitor, full curve, poor fit]",–
O=C(O)CC1NC(=S)N(c2ccccc2)C1=O (centres undefined),"inconclusive: 89.1 µM [inhibitor, partial curve, poor fit]",–
